# According to the RNAGym collection of RNA variant scans (doi:10.7554/elife.90254):
# Read counts are not given, so values of variants with three or more changes are uncertain.
# B1: LINE1-mini (parent)
# chain: GGCAGAGCUCAACACAGCGUGGCAAAGUGGCUGUGGCUAGACUGCC
# Variants of: B1
# Test: self-cleavage, relative activity (ratio to wild type); higher = more cleavage; in vitro, sequencing; the parent is a self-cleaving ribozyme
row,Variant,self-cleavage
1,A6U C10G C15U C37A A39C,0
2,A6U G7C G22A G40C,0.09
3,A6U C15U G17C A24G A41C,0.07
4,A6G U9C C10U A11C A12U A24C U32A,0.02
5,A6U C8G G29C C42A,0.03
6,A6U A24U U34A,0.09
7,A6U C13A C18G,0.14
8,A6U G7C C23U G27U G40C,0.15
9,A6U C13G G19C G22U U34A U43A,0.05
10,A6U C8A C37U,0.02
11,A6U A12C A14G G19A U28G G33A,0
12,A6G U9G C10U A12G G22U A25U A26G,0.02
13,A6U G7U G21U,0.26
14,A6U C10A C31U G33U,0.01
15,A6G U9G C15A C18G G27C A39U G40A,0.04
16,A6U C10A A24U G30U C31U,0.03
17,A6U C18G G30A,0.82
18,A6G G35C C46A,0.08
19,A6U G7U C45A,0.43
20,A6G U28C G29U G40A C42A,0.03
21,A6U C8A A16G,0.09
22,A6U C8A A16U,0.33
23,A6U A39C C45A,0.13
24,A6U C10A A26G G29U,0.17

row,Variant,self-cleavage
1,A6U A16U C18G G19A C23A A39C G44A,0.04
2,A6G U9C C15U C31G,0.01
3,A6U A12U A26U G40U C42A C46U,0.02
4,A6U A14G C45G,0.25
5,A6U G7U C8A A39U,0.04
6,A6G U20G C45G,0.03
7,A6U C10U A16G C23U U28A,0.16
8,A6G G22U U43A C46A,0.44
9,A6U G7U A26C G40U C45U,0.14
10,A6U A12C C37A,0.04
11,A6G G30A C42A C46G,0.13
12,A6U G7U C10A C31U,0.02
13,A6U A11U C18A G19C G29A C42G,0
14,A6U A11U C23G A26C,0.27
15,A6U A16U G17U U34A G35A C37A,0.37
16,A6U C15U G36A,0.1
17,A6U A11U U20C A24C C31U G40U,0.01
18,A6U A25G U28A U34C G44U,0.43
19,A6U A11G U43A C46A,0.01
20,A6U C10A G30A,0.16
21,A6G U20A A24U,0.13
22,A6U A14U C18U,0.05
23,A6U G19A G35U,0.11
24,A6U G7U G40C G44U,0.19

row,Variant,self-cleavage
1,A6U G17U G35A C37U,0.11
2,A6U G17A C18U,0.38
3,A6U A12G G33C,0.05
4,A6G U20G G22A,0.06
5,A6U C13U G29A A39C C45A,0.07
6,A6U C31A G33A,0.03
7,A6U A25C C46A,1.71
8,A6U C15U G21C A41U G44A,0.09
9,A6U A25U A26C G27A G36A,0.11
10,A6U C8A C13G G30C,0.35
11,A6G U32C C42U,0.07
12,A6U C15G C23A C31U,0.02
13,A6U C23U G33C,0.75
14,A6U C13G G27U,0.04
15,A6G G27C G29U U38G,0
16,A6U C18A G19U G22A C37G,0.04
17,A6U C10A U20C G27U U28C,0.01
18,A6U A26U G40U,0.05
19,A6G G29U G30C U34C,0.02
20,A6G G40C A41G,0.03
21,A6U C10A C42G,0.04
22,A6U G7A A25G G30A G36A U43A,0.02
23,A6U C18A A24G,0.07
24,A6G U9A C10G C13U A16U G29C C37G,0.01

row,Variant,self-cleavage
1,A6U A14U G27A,0.16
2,A6U C8U U28G U34A C37A,0.02
3,A6U A11C A14G G17C C18G,0.02
4,A6U G7C A25C,0.1
5,A6U G17A G35C G44A,0.05
6,A6U C10A C45G,0.03
7,A6U C8G G29U G33C,0.12
8,A6U C18U G21U A25C C45G,0.08
9,A6G U32G G33U,0.03
10,A6G U20A A26U U28A G30U,0.08
11,A6U C13G A25U C31A,0.02
12,A6U C10U G19U G22C C31A G35A,0.04
13,A6U A12G C13U A41U,0.04
14,A6U G19A G36A,0.36
15,A6G U28G G40U,0.06
16,A6U C13G C45A,0.22
17,A6U A26U G27A,0.19
18,A6U A39U U43C C46A,0.02
19,A6U C15G G19U G22A U34G,0.01
20,A6U C8A G35U,0.3
21,A6U A24U G27A,0.54
22,A6U C10A U32C,0.01
23,A6G G29C A41C G44A,0.02
24,A6G U9G A12G C15A G19C A26C,0.02

row,Variant,self-cleavage
1,A6U C18A U32G G36C,0.02
2,A6U C8U G33U,0.11
3,A6U C10U G33U,0.03
4,A6U C10A C37U A41U G44A,0.01
5,A6U A24C A26G G27A,0.48
6,A6U A16C C31G G40C C42U,0
7,A6U C23A A25G G30U U38G C42A,0.04
8,A6U A11G G27C,0.01
9,A6U G7C A16U U20A,0.06
10,A6G G22C G33A C37A,0.01
11,A6U C8A C10A C15U G17U G36C,0.01
12,A6U C31G G33A,0.07
13,A6U C8U G30U,0.63
14,A6U C23A G35C,0.06
15,A6U A11U C15A A16U,0.03
16,A6G U9A A24G G40C,0.12
17,A6G U20G G33U C42G,0.07
18,A6U A16U A25C A26G G35A,0.03
19,A6U C8G A14G,0.98
20,A6U C23U C37U,0.03
21,A6U C8G G35A G44A,0.04
22,A6U A24U A25C A41G C46A,0.1
23,A6U G7U A26C U28A C37U A39U,0.01
24,A6U G7C G19A U34G,0.09

row,Variant,self-cleavage
1,A6U C10A C18G,0.05
2,A6U C15U C23U G35A,0.09
3,A6U A25C U32C,0.05
4,A6U C10A G17A C46G,0.05
5,A6U C8U A24U,0.1
6,A6U A14C A26U,0.06
7,A6U C8A A25C G36U,0.15
8,A6U C8A G22U A26C C37A,0.03
9,A6U A12G G35C,0.04
10,A6U C10U G17U G30A,0.13
11,A6G U20C C42G,0.06
12,A6G U20G U38G A41C C46G,0.01
13,A6U C15U C23U A24U,1.59
14,A6G U9G A12C C13U C31A,0
15,A6U C8A A12U G22A A39G,0.07
16,A6U C10U U28A G33U,0.04
17,A6U C10A C31U A39C,0.01
18,A6U C8U A14C G22A,0.08
19,A6U G7C A12U A24U A26U C31A,0.02
20,A6U A11U A26C C42G,0.01
21,A6U C18A U20G U28C,0.41
22,A6U A14C U43C,0.03
23,A6U A11C C15A G30A,0.03
24,A6U G19A G21C A25G G36U C42A,0.02

row,Variant,self-cleavage
1,A6U G17A C18A G30C,1.14
2,A6U C18U A25C A41U,0.02
3,A6G G30C A41C,0.06
4,A6G U9C G29A G35C,0.13
5,A6U G7A G29A,0.08
6,A6U C10U A12U U20A,0.03
7,A6U A14G U20G C31G A39U,0.03
8,A6U A24G A25C U28A U38A C42A,0.02
9,A6U A16G C23U,0.29
10,A6U C10U G36U C37G,0.01
11,A6G G27U G29C G44U C46A,0.01
12,A6U C8G C31U G44A C46G,0
13,A6G G22A U28G C42A,0.1
14,A6G U9G A11G G22U C46U,0.03
15,A6U C10A G36A,0.01
16,A6U C8A U34G A39U,0.19
17,A6U C8A G27A G29U,0.26
18,A6G G30A G35U,0.11
19,A6U G7U U9C A39U,0.12
20,A6U A12G A25U A41U,0
21,A6U C15G A26C U32A,0.04
22,A6U C18U A26G,0.15
23,A6G U20G G44A,0.1
